Test results published in paper PMC9005995.
Results are given in words; binding and its absence hold for the method and conditions named. Binding seen in cells or lysates may run through a third protein. Some results given as binding are weak or reduced against the parent protein; the word gives no strength. Tags and fused reporters may be left off the sequences shown.

Sequences of proteins named here, by UniProt entry; tags and fusion partners are left off.
UniProt P14713: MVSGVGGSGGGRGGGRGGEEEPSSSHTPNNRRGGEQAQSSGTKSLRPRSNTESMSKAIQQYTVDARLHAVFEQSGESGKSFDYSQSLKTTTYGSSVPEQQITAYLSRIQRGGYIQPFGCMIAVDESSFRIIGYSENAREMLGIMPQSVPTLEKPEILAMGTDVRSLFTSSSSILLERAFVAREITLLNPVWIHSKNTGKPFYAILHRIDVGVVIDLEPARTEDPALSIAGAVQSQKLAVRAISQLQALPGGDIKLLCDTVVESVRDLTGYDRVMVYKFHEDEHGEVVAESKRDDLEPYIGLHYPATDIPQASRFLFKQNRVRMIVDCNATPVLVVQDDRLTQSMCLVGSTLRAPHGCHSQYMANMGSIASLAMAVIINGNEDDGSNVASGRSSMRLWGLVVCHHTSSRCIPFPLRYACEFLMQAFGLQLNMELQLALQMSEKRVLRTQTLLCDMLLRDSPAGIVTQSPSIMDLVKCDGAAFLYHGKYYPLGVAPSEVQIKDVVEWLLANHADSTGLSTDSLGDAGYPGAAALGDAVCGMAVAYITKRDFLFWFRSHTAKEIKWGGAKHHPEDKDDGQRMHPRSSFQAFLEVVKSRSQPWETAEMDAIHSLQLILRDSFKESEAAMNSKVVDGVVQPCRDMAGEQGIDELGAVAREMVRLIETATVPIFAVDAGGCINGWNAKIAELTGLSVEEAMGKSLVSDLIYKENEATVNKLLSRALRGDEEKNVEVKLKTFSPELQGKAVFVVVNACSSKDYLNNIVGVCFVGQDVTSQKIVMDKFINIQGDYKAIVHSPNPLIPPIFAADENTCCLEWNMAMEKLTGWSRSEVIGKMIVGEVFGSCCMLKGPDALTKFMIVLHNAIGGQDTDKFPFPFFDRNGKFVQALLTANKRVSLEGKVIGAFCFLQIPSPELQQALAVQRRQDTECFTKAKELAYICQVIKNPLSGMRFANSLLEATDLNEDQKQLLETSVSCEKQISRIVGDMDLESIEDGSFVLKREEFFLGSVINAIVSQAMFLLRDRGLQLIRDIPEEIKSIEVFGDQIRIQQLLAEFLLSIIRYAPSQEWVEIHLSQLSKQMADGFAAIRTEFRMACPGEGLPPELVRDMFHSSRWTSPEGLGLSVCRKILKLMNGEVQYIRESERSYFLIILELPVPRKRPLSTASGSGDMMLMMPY

T1: BIN2-nLUC (Arabidopsis thaliana) (UniProt Q39011)
T1 sequence: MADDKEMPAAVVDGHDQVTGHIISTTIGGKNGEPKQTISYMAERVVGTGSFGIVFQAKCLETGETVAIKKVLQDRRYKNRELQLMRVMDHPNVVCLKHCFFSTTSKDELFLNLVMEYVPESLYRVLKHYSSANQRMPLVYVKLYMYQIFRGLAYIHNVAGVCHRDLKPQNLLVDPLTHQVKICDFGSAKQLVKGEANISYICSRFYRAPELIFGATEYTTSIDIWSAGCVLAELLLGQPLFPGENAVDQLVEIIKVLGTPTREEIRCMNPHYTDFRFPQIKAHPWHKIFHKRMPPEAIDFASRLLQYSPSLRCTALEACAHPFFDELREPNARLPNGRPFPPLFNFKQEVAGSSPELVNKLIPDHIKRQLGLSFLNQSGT

T2: GST-BIN2 (Arabidopsis thaliana) (UniProt Q39011)
T2 sequence: T1 sequence

B1: cLUC-phyA (receptor, UniProt P14712 1-1122)
chain: MSGSRPTQSSEGSRRSRHSARIIAQTTVDAKLHADFEESGSSFDYSTSVRVTGPVVENQPPRSDKVTTTYLHHIQKGKLIQPFGCLLALDEKTFKVIAYSENASELLTMASHAVPSVGEHPVLGIGTDIRSLFTAPSASALQKALGFGDVSLLNPILVHCRTSAKPFYAIIHRVTGSIIIDFEPVKPYEVPMTAAGALQSYKLAAKAITRLQSLPSGSMERLCDTMVQEVFELTGYDRVMAYKFHEDDHGEVVSEVTKPGLEPYLGLHYPATDIPQAARFLFMKNKVRMIVDCNAKHARVLQDEKLSFDLTLCGSTLRAPHSCHLQYMANMDSIASLVMAVVVNEEDGEGDAPDATTQPQKRKRLWGLVVCHNTTPRFVPFPLRYACEFLAQVFAIHVNKEVELDNQMVEKNILRTQTLLCDMLMRDAPLGIVSQSPNIMDLVKCDGAALLYKDKIWKLGTTPSEFHLQEIASWLCEYHMDSTGLSTDSLHDAGFPRALSLGDSVCGMAAVRISSKDMIFWFRSHTAGEVRWGGAKHDPDDRDDARRMHPRSSFKAFLEVVKTRSLPWKDYEMDAIHSLQLILRNAFKDSETTDVNTKVIYSKLNDLKIDGIQELEAVTSEMVRLIETATVPILAVDSDGLVNGWNTKIAELTGLSVDEAIGKHFLTLVEDSSVEIVKRMLENALEGTEEQNVQFEIKTHLSRADAGPISLVVNACASRDLHENVVGVCFVAHDLTGQKTVMDKFTRIEGDYKAIIQNPNPLIPPIFGTDEFGWCTEWNPAMSKLTGLKREEVIDKMLLGEVFGTQKSCCRLKNQEAFVNLGIVLNNAVTSQDPEKVSFAFFTRGGKYVECLLCVSKKLDREGVVTGVFCFLQLASHELQQALHVQRLAERTAVKRLKALAYIKRQIRNPLSGIMFTRKMIEGTELGPEQRRILQTSALCQKQLSKILDDSDLESIIEGCLDLEMKEFTLNEVLTASTSQVMMKSNGKSVRITNETGEEVMSDTLYGDSIRLQQVLADFMLMAVNFTPSGGQLTVSASLRKDQLGRSVHLANLEIRLTHTGAGIPEFLLNQMFGTEEDVSEEGLSLMVSRKLVKLMNGDVQYLRQAGKSSFIITAELAAANK
B2: phyA-YFP (receptor, UniProt P14712 1-1122)
chain: B1 chain

What was measured:
[1] = biological target: T1, BIN2-nLUC (Arabidopsis thaliana); test: split reporter; split-luciferase complementation in Nicotiana benthamiana leaves; nLUC and cLUC fusions co-infiltrated 1:1; for BIN2-BES1 also with Myc-phyA, Myc-phyB or Myc-GUS co-expressed (1:1:1)
[2] = biological target: T2, GST-BIN2 (Arabidopsis thaliana); test: condition: only extract of dark-adapted seedlings (no red light); pull-down; semi-in vivo: as a3, but extract of seedlings that remained in darkness for 30 min; only the target purified
[3] = biological target: T2, GST-BIN2 (Arabidopsis thaliana); test: pull-down; semi-in vivo: GST-BIN2 on MagneGST Glutathione Particles, washed with lysis buffer (50 mM Tris-HCl pH 7.5, 150 mM NaCl, 0.2% Triton X-100), incubated 1 h with extract of dark-adapted seedlings exposed to far-red (10 umol/m2/s, phyA-YFP-OX) or red light (50 umol/m2/s, Myc-phyB-OX) for 30 min; anti-GFP or anti-Myc blot; only the target purified
[4] = biological target: T2, GST-BIN2 (Arabidopsis thaliana); test: condition: only extract of dark-adapted seedlings (no far-red light); pull-down; semi-in vivo: as a3, but extract of seedlings that remained in darkness for 30 min; only the target purified

Molecule	binding [1]	binding [2]	binding [3]	binding [4]
cLUC-phyB (from UniProt P14713 1-1172) (receptor)	binds			
Myc-phyB (from UniProt P14713 1-1172) (receptor)		no binding	binds	
B1	binds			
B2			binds	no binding
